According to paper PMC4336329 (PLoS ONE, 2015):
The campaign covered roughly 310,000 compounds. About 14,000 (4.5%) showed an effect of 50% or more. The effect is printed as a negative number. The list shows a part of the results.

target: human ether-à-go-go-related gene (hERG) potassium channel (human, UniProt Q12809); test: primary screen, population patch clamp on CHO cells stably expressing hERG
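Also: peak tail current of the secondary pulse compared with the same well before compound.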

human ether-à-go-go-related gene (hERG) potassium channel, sequence (Q12809 whole entry, looked up): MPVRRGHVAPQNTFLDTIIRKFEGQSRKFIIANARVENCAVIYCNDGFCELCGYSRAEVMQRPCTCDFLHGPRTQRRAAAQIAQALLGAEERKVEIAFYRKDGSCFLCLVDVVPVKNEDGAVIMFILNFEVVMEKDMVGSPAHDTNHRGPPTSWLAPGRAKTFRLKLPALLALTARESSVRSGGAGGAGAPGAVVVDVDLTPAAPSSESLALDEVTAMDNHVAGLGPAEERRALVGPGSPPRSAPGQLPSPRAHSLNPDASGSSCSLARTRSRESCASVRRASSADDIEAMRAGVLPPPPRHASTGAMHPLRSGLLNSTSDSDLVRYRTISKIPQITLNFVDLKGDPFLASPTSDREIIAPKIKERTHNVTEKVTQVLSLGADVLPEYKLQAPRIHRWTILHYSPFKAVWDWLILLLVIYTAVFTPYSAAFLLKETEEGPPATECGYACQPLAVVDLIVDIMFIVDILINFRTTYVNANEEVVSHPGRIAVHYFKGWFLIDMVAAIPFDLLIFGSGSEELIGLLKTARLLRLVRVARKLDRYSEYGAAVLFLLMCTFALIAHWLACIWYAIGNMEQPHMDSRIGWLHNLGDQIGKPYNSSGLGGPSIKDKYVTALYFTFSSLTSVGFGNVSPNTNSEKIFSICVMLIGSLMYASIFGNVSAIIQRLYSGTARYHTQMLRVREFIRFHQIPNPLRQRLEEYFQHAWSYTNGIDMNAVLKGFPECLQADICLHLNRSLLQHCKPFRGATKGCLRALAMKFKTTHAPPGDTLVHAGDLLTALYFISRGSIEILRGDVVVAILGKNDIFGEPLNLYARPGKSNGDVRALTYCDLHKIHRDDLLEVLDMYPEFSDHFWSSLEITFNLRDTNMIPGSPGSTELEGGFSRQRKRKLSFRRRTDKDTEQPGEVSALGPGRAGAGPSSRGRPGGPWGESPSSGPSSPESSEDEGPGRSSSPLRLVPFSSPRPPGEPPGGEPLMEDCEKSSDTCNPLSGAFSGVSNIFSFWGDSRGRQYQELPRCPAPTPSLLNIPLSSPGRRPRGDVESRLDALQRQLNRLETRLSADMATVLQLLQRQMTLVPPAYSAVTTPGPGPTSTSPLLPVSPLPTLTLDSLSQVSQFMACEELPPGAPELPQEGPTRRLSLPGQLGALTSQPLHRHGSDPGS

Compound	hERG current change (%, negative = inhibition) at 10uM
N#Cc1ccc(C(=O)CSc2nnc(-c3ccc(C(F)(F)F)cn3)s2)cc1	18.3%
CC1CN(CCC(=O)Nc2ccccc2F)CC(C)O1 (stereo not drawn)	9.33%
Cn1cnnc1SCc1ccc(C(=O)n2ncc(C#N)c2N)cc1	4.43%
CC(=O)Nc1cc(S(=O)(=O)Nc2ccc(C)cc2)c(C)cc1C	7.32%
Cc1cccc(OCC(=O)NCC(=O)N/N=C/c2cccnc2)c1	5.67%
C/C(=N/OC(=O)CC(C)C)c1cc(-c2ccc(Cl)cc2)no1	15%
Nc1nonc1-n1nnc(C(=O)N/N=C/c2ccc(OCc3ccccc3F)cc2)c1CN1CCCCC1	8.74%
COc1ccc(NC(=O)/C=C/c2ccc(S(=O)(=O)N3CCOCC3)cc2)cc1	4.44%
O=C1CSc2ccc(S(=O)(=O)NCc3ccccc3Cl)cc2N1	1.49%
O=C(COC(=O)c1ccc(NS(=O)(=O)c2cccs2)cc1O)NC1CCCCC1	8.92%
Cc1ccc(NC(=O)CSc2nnc(CNC(=O)C34CC5CC(CC(C5)C3)C4)n2-c2ccc(F)cc2)cc1	9.39%
C=C(C)COc1ccc2c(C)c(CC(=O)N3C[C@H]4C[C@@H](C3)c3cccc(=O)n3C4)c(=O)oc2c1	-48.5%
CNc1c(NS(=O)(=O)c2ccc(F)c(Cl)c2)c(=O)oc2ccccc12	3.54%
Cc1ccc(NC(=O)CC(C)N2CCCC2)cc1 (stereo not drawn)	7.89%
Cc1ccc(CNC(=O)C(=O)NCC2CCCN2S(=O)(=O)c2cccs2)cc1 (stereo not drawn)	-36.6%
CCOc1ccccc1C1NC(=O)CCC1[N+](=O)[O-] (stereo not drawn)	17.2%
CCCNS(=O)(=O)c1ccc(OCC(=O)NCCC2=CCCCC2)cc1	-9.97%
Clc1ccc(Cn2ccc(C3CC3)n2)cc1	-1.79%
N#CC1=C(N)OC2=C(C(=O)CCC2)C1c1ccc2c(c1)OCO2 (stereo not drawn)	10.3%
Cc1ccc(CN(C)CC(=O)NC(C)c2ccccc2)cc1 (stereo not drawn)	-16%
CC(C)N(Cc1ccccc1)C(=O)/C=C/c1ccccc1[N+](=O)[O-]	-31.4%
COc1ccc(-c2noc(=O)n2Cc2ccccc2F)cc1	-5.9%

Compound	hERG current change (%, negative = inhibition) at 10uM
COc1ccc2cc(C(=O)C3CCCN(Cc4cnc(C)s4)C3)ccc2c1 (stereo not drawn)	-28.8%
NNC(=O)c1cc2cc(OC(F)(F)F)ccc2[nH]1	-25.4%
O=C(CSc1ncnc2scc(-c3ccccc3)c12)NCc1ccc2c(c1)OCO2	13.8%
Cc1cc(NC(=O)[C@H](C)NC(=O)c2ccco2)ccc1Br	13.3%
CCC1=Nc2cc(C(=O)NCCCN3CCOCC3)ccc2Sc2ccccc21	-19.8%
CCN(CC)c1ccc(NS(=O)(=O)c2ccc3c(c2)oc(=O)n3C)c(C)c1	10.3%
Cc1ccc(NC(=O)CN(C)C2CCCCC2)cc1Br.Cl	-28.8%
Cc1ccc(C(=O)N(CC(=O)NC2CCCC2)Cc2cccs2)s1	-43.8%
Cc1ccc(CCC(=O)Nc2ncc(Cc3cccc(Cl)c3Cl)s2)o1	51.7%
NC(=O)SCC(=O)Nc1cccc(Cl)c1	8.99%
O=C(NNc1nc(Nc2ccccc2)nc(N2CCOCC2)n1)Nc1ccc(Cl)cc1	13.2%
COc1ccc(/C=N/n2cc(-c3ccccc3)nc2N)cc1	-35.1%
CN1/C(=C\C=N\NC(=O)c2cccnc2)C(C)(C)c2ccccc21	7.12%
Cc1ccc(N2CC(C(=O)NCCN3CCOCC3)CC2=O)cc1C (stereo not drawn)	10.2%
Cn1cnc(S(=O)(=O)Nc2cc(C(F)(F)F)ccc2N2CCOCC2)c1	20.1%
Cc1noc(C)c1/C=N/Nc1ccc2ccccc2n1	7.03%
O=C(C1=NN[C@@H]2C(=O)N(Cc3ccccc3)C(=O)[C@H]12)c1ccc([N+](=O)[O-])cc1	-50.2%
CC(C)C(c1nnnn1Cc1ccc(F)cc1)N1CCN(C(=O)c2ccco2)CC1 (stereo not drawn)	-49.1%
CC(C)c1nc2oc3c(=O)[nH]cnc3c2c2c1CCC2	-13.5%
CCC(C)(C)NC(=O)CN(C(=O)CNS(=O)(=O)c1ccc(F)cc1)c1ccc2c(c1)OCCO2	1.71%
O=C(CSc1nnc(-c2ccc(O)cc2)o1)Nc1cccc(O)c1	14.8%
CCOc1cc(N)c(Cl)cc1C(=O)NCC1CN(Cc2ccc(F)cc2)CCO1.O=C(O)CC(O)(CC(=O)O)C(=O)O (stereo not drawn)	-16.7%

Compound	hERG current change (%, negative = inhibition) at 10uM
Clc1ccc(N2CCN(/N=C/c3cccnc3)CC2)cc1	-1.21%
Cc1cc(C)c(S(=O)(=O)NCCn2c(C)cc3ccccc32)c(C)c1	9.36%
CCOC(=O)c1ccccc1NC(=O)COC(=O)CCC(=O)c1ccccc1	16.3%
Clc1c(-c2nnc3n2CCC3)sc2ccccc12	10.4%
COC(=O)c1cnn(-c2ccc(C)c(C)c2)c1-n1cccc1	-1.03%
CCCC(C)c1nc(C(N)=O)c2[nH]c(=O)n(-c3ccc(OC)cc3OC)c2n1 (stereo not drawn)	9.19%
O=C(CCS(=O)(=O)c1cccc2nsnc12)NC1CCCCCC1	11.4%
CCC(CC)NC(=O)Cn1c(C(C)NC(C)=O)nc2ccccc21 (stereo not drawn)	17.6%
CC(C)CCNC(=O)CCC(=O)NNc1nc2ccccc2c2nc(-c3ccccc3)nn12	5.85%
Cn1nc(-c2ccccc2)c(C#N)c1Sc1cccc(Cl)c1	12.5%
O=C(COC(=O)Cc1ccsc1)Nc1ccccc1Cl	-5.18%
O=C(CN1CCN(c2ccccc2O)CC1)NC(=O)NCc1ccccc1	-9.32%
Cc1ccsc1/C=N/NC(=O)c1cccc(S(=O)(=O)Nc2ccccc2Cl)c1	-11.8%
COc1ccc2c(c1OC)C(=O)OC2c1c(O)n(Cc2ccc(F)cc2)c(=O)[nH]c1=O (stereo not drawn)	3.09%
O=C1CC(c2cccc(Cl)c2)Cc2nc(N3CCN(c4ccccc4)CC3)ncc21 (stereo not drawn)	11.7%
Clc1nc(NCc2cccnc2)nc(N2CCOCC2)n1	-1.61%
CS(=O)(=O)c1ccc(Cl)c(NC(=O)COC(=O)c2ccc(F)cc2Cl)c1	-3.18%
O=C(Oc1ccc(Br)cc1C(=S)N1CCCC1)c1ccccc1F	3.94%
COC(=O)CS(=O)(=O)c1ccc(C)cc1	34.8%
COc1ccc(OC)c(S(=O)(=O)N2CCN(c3ccccc3)CC2)c1	-28.1%
Cc1ccc(S(=O)(=O)N(C)CC(=O)N2CCOCC2)cc1	6.11%
Cc1ccc2nc(SCCC#N)nc(C)c2c1	1.8%

Compound	hERG current change (%, negative = inhibition) at 10uM
O=C(CC(Cc1ccccc1)C(=O)O)Nc1ccc(F)cc1 (stereo not drawn)	10.4%
Cc1nc(CNC(=O)c2ccccc2OC2CCN(S(C)(=O)=O)CC2)cs1	-6.71%
c1ccc(CNc2nc(NCc3ccco3)nc(N3CCOCC3)n2)cc1	-28.5%
COc1ccc(NC(=O)CSc2nnc(CNC(=O)c3ccco3)o2)cc1	11.8%
CCN(CC)S(=O)(=O)c1ccc(N2CCCC2)c(NC(=O)CN2C(=O)NC3(CCCC3)C2=O)c1	2.65%
CCCCc1ccc(Nc2nc(CCC)cc(=O)[nH]2)cc1	5.17%
COC(=O)c1c(NC(=O)c2ccco2)sc(C(=O)N2CCCC2)c1C	-4.55%
Cc1ccccc1/C=N/NC(=O)c1cccnc1	-2.46%
CN1CCN(c2cc(-c3cc(O)c4ncccc4c3)ccn2)CC1	3.6%
c1ccc2nc(N3CCOCC3)c(N3CCOCC3)nc2c1	-1.12%
COC(=O)c1cc2nc(-c3ccc(OC)c(OC)c3)cc(C(F)(F)F)n2n1	22.4%
CCCN(C(=O)CSc1nc2cc(S(=O)(=O)N(CC)CC)ccc2o1)C1CCS(=O)(=O)C1 (stereo not drawn)	-14.5%
COc1ccc(S(=O)(=O)N2CCCCCC2)cc1C(=O)N(C)CC(=O)Nc1ccccc1C(F)(F)F	-23%
CC(C)c1ccccc1-n1c(SCC(=O)N2CCN(c3ccccc3)CC2)nnc1-c1cccnc1	-24.3%
Cc1ccnc(NS(=O)(=O)c2ccc(NC(=O)C3CCCNC3=O)cc2)n1 (stereo not drawn)	-10.7%
CCCN1C(=O)/C(=c2\sc3nc(=O)c(Cc4ccc(C)cc4)nn3c2=O)c2ccccc21	21.2%
N/C(=N\c1nc2ccccc2o1)NC(=O)c1ccc([N+](=O)[O-])cc1	-4.98%
Cc1ccc(S(=O)(=O)N2CCOC2CNC(=O)C(=O)NCCCc2ccccc2)cc1 (stereo not drawn)	3.65%
Cl.O=C(Nc1cccc(C(F)(F)F)c1)c1cccnc1N1CCOCC1	17.3%
Cc1ccc(NC(=O)O/N=C/c2ccc(N(C)C)cc2)cc1	14.6%
COc1ccc(N2CCN(C(=O)c3ccc4c(=O)n(CCc5ccc(OC)c(OC)c5)c(=O)[nH]c4c3)CC2)cc1	8.27%
